Some of the results follow. At the low end of the ranking the order means little. Measured with an extract: partners may take part in the binding.

The source of these data is paper PMC10726135.

The target in the test is T1, HNF4alpha2 (COS-7 nuclear extract) (UniProt P41235).
T1 sequence: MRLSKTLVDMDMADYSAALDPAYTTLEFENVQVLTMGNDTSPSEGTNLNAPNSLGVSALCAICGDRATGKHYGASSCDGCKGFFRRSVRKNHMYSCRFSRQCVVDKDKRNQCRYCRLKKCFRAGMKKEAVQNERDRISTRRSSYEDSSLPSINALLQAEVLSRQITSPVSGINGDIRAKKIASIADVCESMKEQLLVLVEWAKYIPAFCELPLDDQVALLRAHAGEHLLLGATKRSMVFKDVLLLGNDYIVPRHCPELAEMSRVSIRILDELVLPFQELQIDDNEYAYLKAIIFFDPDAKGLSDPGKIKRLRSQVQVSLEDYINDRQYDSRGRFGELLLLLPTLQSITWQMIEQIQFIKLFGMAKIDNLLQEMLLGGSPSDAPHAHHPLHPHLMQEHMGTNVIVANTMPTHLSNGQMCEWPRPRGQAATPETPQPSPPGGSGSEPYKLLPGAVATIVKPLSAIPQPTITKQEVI
In words: protein-binding microarray. The following applies: COS-7 nuclear extract on double-stranded Agilent 4x180k PBM; binding buffer, salt, pH and temperature not given; high values mean tight binding; double strand, one strand shown; sequences stand for … in …GCCTAGGGAGATTAGAGTATCGGTCGA
Consider GTCTGTTGACCTTTGGCCAAGGGCAGTGTT, for which the binding signal (log2 normalized intensity) was 6.71.
For the sequence GTTTTCACTGCTGGGTTTCTTCCCTAATGG, the binding signal (log2 normalized intensity) came out at 1.02.
Regarding GTTAAAGCACAGTGTCTTTGTTTGGAAAAG, the binding signal (log2 normalized intensity) amounted to 0.367.
As to CATCATTCCGTGACTGAGCTCGCGCCGGGC, the binding signal (log2 normalized intensity) was -0.944.
GATAGACTTATCTCAGCCTGGCTAAAACCC: the binding signal (log2 normalized intensity) was -1.16.
With TGCTTTCTGACTCTTTCTTTACAGGAAAAA, the binding signal (log2 normalized intensity) was -0.97.
In the case of CTCTGCCCTTGGCCTACTTAGTCCAGGTTT it was 1.32.
Under GGAGGGATCAAGCAGGTGACCTTCGATCAC stands 5.71; under TGAAATAGCATGAATTTGGTACCTCCCCCC, 5.29.
Take ACTTGTTCCCTGTCGCTATCTTATCTGGGC: the binding signal (log2 normalized intensity) was 1.62.
Take CCAAGCCTAGAAAAACAACTAAAGGAATGC: the binding signal (log2 normalized intensity) is -1.18.
As for TGAGACTTTGGACTTTTGAACTAAGGCTGG, the binding signal (log2 normalized intensity) worked out at 4.72.
Take ACGAAAGGGACTTTGATCTTCTTACCCCTT: the binding signal (log2 normalized intensity) is 4.9.
TACTAAAACAGGGAGCAGGCAGATTTGACC: the binding signal (log2 normalized intensity) worked out at 1.78.
As to AGGTCAAAGTTTGCCTTGACCTCTAAAGGG, the binding signal (log2 normalized intensity) was found to be 3.13.
With AGGGCAGAGGTCAGCCCACAGGTCAATCCA, the binding signal (log2 normalized intensity) amounted to 2.16.
Take ACCTTTTAGATAGTAGCCCTTTGTATCTTT: the binding signal (log2 normalized intensity) worked out at 1.99.
Take TGAGGAATCTAAGATAAGCAGCATTCCACC: the binding signal (log2 normalized intensity) was -0.938.
As to GATTTTAGAAGTCACTCCTTCCTCAAGACC, the binding signal (log2 normalized intensity) is -1.17.
Turning to AAACCTCCCCCAAACCAAAGAGAAATGGTG, the binding signal (log2 normalized intensity) was 3.22.
As for GAAAGTCATGCTGAAGTACAGATTCCTGTA, the binding signal (log2 normalized intensity) amounted to 0.797.
With AAAATAGGGATTAAGCAGATGTTTCTGCAA, the binding signal (log2 normalized intensity) was -0.66.
As to GAAGCAATCAAGCAATCATATATGCATTTG, the binding signal (log2 normalized intensity) was -0.425.
For the sequence TTTAAGGATCCAGACGGATTCCACGGGGGT, the binding signal (log2 normalized intensity) is -0.149.
Take CAAAGGTCATGGCAACAGTTTTCTGGGATG: the binding signal (log2 normalized intensity) is 2.82.
In the case of GCCACCCTGAAGGCTGAGCCTAGGAGTTCA it was -1.19; in that of TATCAGAAGCTTACATATCACTTCCATCAG, -1.05.
On to GTCTTCATGGGCAAATAAAGCTAACCAGCT, for which the binding signal (log2 normalized intensity) was -0.966.
GAGCAGGGATTGGGGATGCTCAAAGTACAC: the binding signal (log2 normalized intensity) came out at 1.66.
With TAAGGTCCTGTTTGTCAGCATCTTCACCGT, the binding signal (log2 normalized intensity) turned out to be 1.32.
As to AAAACTGGCCCTGATTTCAAAGTTCAGTTT, the binding signal (log2 normalized intensity) worked out at 2.73.
With AGCCGTTTCTGTCCAGAGTTTAAATGACCT, the binding signal (log2 normalized intensity) was determined as 3.45.
Take GGTCCTAAGACTAACCTTTGACCATCCACG: the binding signal (log2 normalized intensity) was found to be 5.96.
Consider AGATCTGGATATGCCTGGGGTTCCAGTTAC, for which the binding signal (log2 normalized intensity) turned out to be 0.693.
Take TGCCCTGAGCCGCCAGGCGGGTTCTGCCAT: the binding signal (log2 normalized intensity) is -1.08.
GGAGGTAGGGCAAGAGGACAAGGTTCAAAA: the binding signal (log2 normalized intensity) is 2.52.
Take GGTTGCAAAAACAATCAGGGGTTAGGGTGA: the binding signal (log2 normalized intensity) is -1.03.
Turning to AGATAGCATTCCAAGAGAGCAAAGTGCTTT, the binding signal (log2 normalized intensity) was 0.587.
Under GCCAGAACTGAGCCCTGGTTTATCTGTTGT stands 0.938; under CCTGGGCATGTCTGCTCCCTGAGTTTCTGC, 0.189; under ACCAAAGCAGCTAGCAAATACAAGGACACT, -1.05.
Under TTACAATGGAAAGATTAGGTCAAAGGGCGT stands 5.
Take GGCAGAGCATAGAAGTAAGAAATCAGGAGC: the binding signal (log2 normalized intensity) is -1.21.
For GCAGCTCTTTACAAAGCCCATGCTGGACCC, the binding signal (log2 normalized intensity) was found to be 3.94.
Turning to CCTTCTGTTAGAATGTATTGAGAAGAAACC, the binding signal (log2 normalized intensity) came out at 0.656.
AGTGTAAGATAAAAATCAGAGATCAAGATA: the binding signal (log2 normalized intensity) was -1.06.
Under CTTTGACCCTGTTTTGTAAACTCCCTTTGA stands 1.78; under ACACAGGACTTGATCCAGGGCAAAGGTCAT, 7.38.
Take CAAAATATCTCACTCCCACACTGGTAACCT: the binding signal (log2 normalized intensity) turned out to be 0.649.
As to TCTCATGGCTCATTTTGGGCATCTGCAGGG, the binding signal (log2 normalized intensity) turned out to be 1.53.
For CTTTGCTTTGAGAAAGCAAAGTCCCTGGGG, the binding signal (log2 normalized intensity) was found to be 1.22.
In the case of GATGTGGAATGAAACCAGTTTCAAAACCTG it was -1.21; in that of CAGAGCCTGCCCCCGGGGCCGCCTTGGAAA, 0.0699.
Turning to CTCCCTTTTCAACAATGTTATCTTTTCAAG, the binding signal (log2 normalized intensity) came to 1.07.
In the case of GTCATAGCTTTATCTCTCCCCCACCACTGC it was 4.95; in that of GGCAGTCGGGAAATTCCAGCAGGAATTGAT, -1.18.
For the sequence TTCCATACCAAAGACTGAGCAGCTGGAGGG, the binding signal (log2 normalized intensity) was -1.18.
For AAACCTTCCAAAGTTCAACCTCATTATCTT, the binding signal (log2 normalized intensity) is 2.21.
For ATTAAGAGGCTACAACCAGACTTGGAGAGA, the binding signal (log2 normalized intensity) was -1.3.
As to CTAACCATAGGAGGCTGGTCTAAGTCCACA, the binding signal (log2 normalized intensity) was 1.94.
For the sequence ACTTTGGAATGGCAGTGCTTGTCCAAGATG, the binding signal (log2 normalized intensity) was 0.841.
Regarding GGGTTAGGGTTAGGGTTACGGTTAGGGTTA, the binding signal (log2 normalized intensity) is 1.58.
As for ATCAACTTTCAGAAGGGGACAAGCACATTA, the binding signal (log2 normalized intensity) was -0.659.
Under TACAAGGTCCATAAAACCAGTCAGGCAAAC stands -1.21.
As for GCAGAAATCAACTGCCCTCTGCCTTTCAGG, the binding signal (log2 normalized intensity) was -0.661.
For the sequence AAGGGAGAAAGACATGTTTCTAACTGCCCG, the binding signal (log2 normalized intensity) was -0.412.
In the case of TCTGGGGTCCTCTGCTGCCCTCTAGGGTTG it was 1.41.
Take CTCTCTGAAATGAAGGTCAGCAAATTTGTT: the binding signal (log2 normalized intensity) came out at 1.18.
As to CTTCGTCCTGAGCAGTCCCTTCCCCCCTCC, the binding signal (log2 normalized intensity) amounted to 5.36.
Consider GCAGAAACCATCTGGCTTGGCCCCCGGACC, for which the binding signal (log2 normalized intensity) worked out at 3.35.
CTGCTCAAAGGGGAAAGAGGGGGAAGAGAT: the binding signal (log2 normalized intensity) was -1.12.
As to CAGCAACACTCTACTACTTGACCTTTGAAA, the binding signal (log2 normalized intensity) was 6.06.
For TCTTAGGACCACATGAGTAAACAAGCTCTT, the binding signal (log2 normalized intensity) is -1.07.
